# Out of some 410,000 compounds screened, about 260 (0.063%) were called active. The shares of active, inactive and inconclusive entries below differ from those in the screen. Calls come from the whole dose curve; as a rule, active = well fitted activation curve with a large enough effect; inconclusive = small, poorly fitted or top-dose-only effect; inactive = no such curve, though single readings can be large or run the other way. No potency is given beside an inconclusive call; the fits are too rough.
# Test: qHTS for compounds that reverse cellular toxicity of Amyloid beta (A-beta) peptide in yeast: Primary Screen; note: nearly all actives have a fitted effect of over 55% in size
# Conditions: yeast expressing A-beta42, growth rescue, OD600, 48 h; growth rescue: at 46.1 µM (top of the series), 0% DMSO, 100% iron-clioquinol control
# Procedure, shortened: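 Growth rescue measured by 600 nm absorbance after 48 h yeast culture at 30 C with compound. Values normalized between DMSO and an equimolar ferric chloride plus clioquinol control.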
# Potency is the fitted concentration of half-maximal effect; tags give direction and shape of the fitted curve.
Structure (SMILES),Potency,growth rescue
COc1ccc(CN2C(=O)CCC2(C)C(=O)NC2CCCCC2)c(OC)c1 (centres undefined),"inconclusive [activator, single point]",
Cc1ccc2cn[nH]c2c1NC(=S)NC(=O)c1ccccc1,"inconclusive [activator, single point]",
Oc1c(CN2CCCCC2)cc(COCc2ccccc2)c2cccnc12,"inconclusive [activator, single point]",
Cc1ccc(C(=O)Oc2cccc(NC(=O)c3ccccc3)c2)cc1C,"inconclusive [activator, full curve, poor fit]",
COc1ccc2oc(C(=O)Nc3nc4ccc(S(C)(=O)=O)cc4s3)c(C)c2c1,inactive,
O=C(Cn1nnc(-c2ccccc2)n1)N=Nc1c(O)[nH]c2ccccc12,inactive,
CS(=O)(=O)c1nc(-c2ccccc2)cc(-c2ccccc2)c1C#N,"inconclusive [activator, single point]",
CC(C)CN1CCC(=O)N(CCSc2ccccc2)CC1,inactive,
S=C(NCC1CCCO1)NC12CC3CC(CC(C3)C1)C2 (centres undefined),"inconclusive [activator, single point]",
O=S(=O)(Nc1cccc(-c2cn3cccnc3n2)c1)c1ccc(-c2ccccc2)cc1,inactive,
Cc1ccc2cccc(NC(=O)c3ccc(-c4ccc(Cl)cc4Cl)o3)c2n1,inactive,
N#Cc1ccccc1OCC(=O)Nc1nc(-c2ccccn2)cs1,"inconclusive [activator, single point]",
Cc1cc(C)cc(NS(=O)(=O)c2ccc(-c3cc(C)no3)cc2)c1,inactive,
Cc1ccc2c(c1)N(CC(=O)N(Cc1ccc3c(c1)OCO3)CC1CCCO1)C(=O)C(C)O2 (centres undefined),"inconclusive [activator, partial curve]",
Cc1ccnc(NC(=O)C2CCN(S(=O)(=O)c3c(C)c(C)cc(C)c3C)CC2)c1,"inconclusive [activator, partial curve]",
Clc1ccc(C2=Nn3c(nnc3-c3n[nH]c4c3CCC4)SC2)cc1,inactive,
CC(C)CCNC(=O)NC(=O)CSc1nnc(COc2ccccc2Cl)o1,"inconclusive [activator, partial curve, poor fit]",
Fc1cccc(NC(=S)NNc2ccccc2)c1,"inconclusive [activator, partial curve, poor fit]",
C/C(=N\Nc1nncc2ccccc12)c1ccc(OCC(=O)N(C)C)cc1,"inconclusive [activator, partial curve, poor fit]",
S=C(Nc1cccc(Cl)c1)Nc1ccc2c(c1)OCCO2,"inconclusive [activator, partial curve, poor fit]",
CC(NC(=O)COC(=O)C1=NN(c2ccccc2)C(=O)CC1)c1ccccc1 (centres undefined),inactive,
O=C(Sc1nnc(-c2ccccc2)o1)N1c2ccccc2Sc2ccccc21,"inconclusive [activator, partial curve]",

Structure (SMILES),Potency,growth rescue
Cc1cccc(NC(=S)N(C)C2CCCCC2)c1,"inconclusive [activator, single point]",
Cc1cc(C(=O)N/N=C/c2ccc(OCc3ccccc3)cc2)c(C)o1,"inconclusive [activator, partial curve, poor fit]",
COc1cccc(CNc2nc3cc(-c4csc5ccccc45)sc3c(=O)n2C)c1,"inconclusive [activator, partial curve, poor fit]",
CCOc1ccc(Oc2ccccc2NC(=O)C2=COCCO2)cc1,"inconclusive [activator, single point]",
C=Cc1ccc(CC2(C)C(=O)Nc3ccc(Cl)cc32)cc1 (centres undefined),"inconclusive [activator, partial curve, poor fit]",
COc1cccc(CN2C(=O)[C@@H]3Cc4c([nH]c5ccccc45)C(C)(C)N3C2=O)c1,active: 10 µM,
CCOC1=C/C(=C/c2c(N)n3nc(-c4ccccc4)sc3nc2=O)C=CC1=O,inactive,
Cc1ccc2c(c1)C(c1ccccc1)N(C(=O)c1ccc(Br)o1)CC(=O)N2 (centres undefined),"inconclusive [activator, single point]",
O=C(NNC(=S)NC1CC2CCC1C2)c1ccc(Cl)cc1 (centres undefined),"inconclusive [activator, partial curve]",
Cc1cc(=O)oc2c(C)c(OC(C)C(=O)NCC3CCC(C(=O)O)CC3)ccc12 (centres undefined),inactive,
O=C(C(Cc1ccccc1)N1C(=O)C2C3C=CC(C3)C2C1=O)N1CCCCC1 (centres undefined),inactive,
Cc1ccccc1Nc1c(-c2ccc(O)cc2)nc2c(C)cccn12,inactive,
O=C(NCc1ccccc1)C1CCCN(S(=O)(=O)c2cccnc2)C1 (centres undefined),"inconclusive [activator, single point]",
COc1ccc(CC(=O)OC(C)CN2CCOCC2)cc1 (centres undefined),"inconclusive [activator, full curve]",
Cc1cc(-c2n[nH]c(=S)n2/N=C/C(Cl)=C/c2ccccc2)n[nH]1,"inconclusive [activator, partial curve, poor fit]",
Cc1ccc([N+](=O)[O-])cc1NC(=O)CCSc1ccc(Cl)cc1,"inconclusive [activator, partial curve, poor fit]",
O=C(COC(=O)c1cccc(Br)c1)Nc1cccc(S(=O)(=O)N2CCCCC2)c1,inactive,
CC(=O)C[C@H]1c2cc(C(F)(F)F)ccc2S(=O)(=O)N1Cc1ccccc1,"inconclusive [activator, single point]",
Cc1cc(OCCN2CCN(S(=O)(=O)c3ccccc3F)CC2)ccc1C(C)C,"inconclusive [activator, single point]",
Cc1cc2nc3c(nc2cc1C)C1(C(=O)O)CCC3(C)C1(C)C (centres undefined),inactive,
COc1ccc(S(=O)(=O)N(C)c2ccc(C(=O)NC3CCCC3)cc2)cc1,"inconclusive [activator, partial curve, poor fit]",
COc1ccccc1NC(=O)c1cc(S(=O)(=O)N2CCC3(CC2)OCCO3)ccc1F,,inconclusive: -36.3% [activator]
